Source: PubChem BioAssay AID1671188 (National Center for Advancing Translational Sciences (NCATS), 2021)
Among all 100,000 compounds or so, about 250 (0.25%) were called active. Inconclusive means that the source gave no clear call. Such entries were picked first, then a sample of the others. Calls follow the shape of the dose curve; as a rule, active = well fitted inhibition curve with a large enough effect; inconclusive = small, poorly fitted or top-dose-only effect; inactive = flat fitted curve, though single readings scatter. No potency is given beside an inconclusive call; the fits are too rough.

The compounds below were run against Alanine aminotransferase 2 (Homo sapiens) (UniProt Q8TD30) (assay: Primary qHTS assay for inhibitors of Glutamate pyruvate transaminase 2 (GPT2)). Conditions: Recombinant GPT2, coupled pyruvate oxidase/HRP Amplex Red fluorescence; series mostly up to 57.7 µM.
Outline: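 Fluorescence of coupled pyruvate oxidase/HRP/Amplex Red system (50uM Amplex, 30 min, dark) reports pyruvate formed by GPT2. Enzyme reaction: 10ng/uL GPT2, 2mM L-alanine, 250uM a-KG, 30 min room temperature, pH 7.5; 50uM AOA control.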
Also: nearly all actives have a fitted effect of over 60% in size.
Potency is read from the fitted curve at half-maximal effect; tags tell the direction and shape of the fitted curve.

Sequence of UniProt Q8TD30 (Q8TD30 whole entry, looked up): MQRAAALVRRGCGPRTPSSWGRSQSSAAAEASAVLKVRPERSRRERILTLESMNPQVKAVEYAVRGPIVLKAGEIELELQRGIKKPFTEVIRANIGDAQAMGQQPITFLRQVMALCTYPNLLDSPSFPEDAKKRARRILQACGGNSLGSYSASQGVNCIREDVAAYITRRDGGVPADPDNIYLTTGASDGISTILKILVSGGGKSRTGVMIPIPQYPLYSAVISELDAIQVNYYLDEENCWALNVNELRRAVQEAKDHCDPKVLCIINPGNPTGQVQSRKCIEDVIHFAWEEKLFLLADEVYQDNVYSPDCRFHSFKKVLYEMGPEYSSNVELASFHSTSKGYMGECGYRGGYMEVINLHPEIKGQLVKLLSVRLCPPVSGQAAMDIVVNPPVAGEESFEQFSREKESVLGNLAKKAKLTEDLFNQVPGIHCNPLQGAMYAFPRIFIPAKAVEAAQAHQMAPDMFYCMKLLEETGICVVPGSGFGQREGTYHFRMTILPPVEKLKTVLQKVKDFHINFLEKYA

Row | Compound | Potency
1 | Cc1ccc(-c2cc(N3CCCN(C(=O)COc4ccc(F)cc4)CC3)n[nH]2)cc1C | inconclusive [inhibitor, partial curve]
2 | COc1ccc(-c2cc(N3CCC(NC(=O)c4cccc(N(C)C)c4)C3)n[nH]2)cc1 (configuration not stated) | inconclusive [inhibitor, partial curve, poor fit]
3 | O=C(Nc1cccc(F)c1)N1CCCC(c2nn[nH]n2)C1 (configuration not stated) | inactive
4 | CC(=O)NCC1Cn2cccc2CN1Cc1ccccc1 (configuration not stated) | inconclusive [inhibitor, single point]
5 | O=C(C1CC(=O)N(c2n[nH]c3ccccc23)C1)N1CCC(c2noc3cc(F)ccc23)CC1 (configuration not stated) | inactive
6 | COc1cccc([S+](=O)([O-])N2CCCC3(CC(C(C)C)=NO3)C2)c1 (configuration not stated) | inconclusive [inhibitor, single point]
7 | COc1cccc(CN2CC3(C2)C(=O)N(Cc2cccc(Cl)c2)C(=O)[C@@H]2C[C@@H](O)CN23)c1 | inactive
8 | CCC1(O)CC2CN(CCc3c([nH]c4ccccc34)[C@@](C(=O)OC)(c3cc4c(cc3OC)N(C=O)C3[C@]45CCN4CC=C[C@@](CC)([C@@H](OC(C)=O)[C@]3(O)C(=O)OC)[C@H]45)C2)C1 (some centres not stated) | inconclusive [inhibitor, partial curve, poor fit]
9 | CNC(=O)[C@@H](c1ccccc1F)N1CCC[C@H]1C(=O)N1CCOCC1 | inactive
10 | COc1cc(OC)cc(C(=O)N2CCC(c3n[nH]c(=O)n3-c3ccc(C)cc3)CC2)c1 | inactive
11 | CCOc1ccc(-c2cc3c(=O)n(CCNC(=O)c4cccc5[nH]ccc45)ccn3n2)cc1 | inactive
12 | Cc1ccc(CN2CC(Oc3ccccc3C(=O)N3CCOCC3)C2)cc1C | inactive
13 | Cc1ccc(C(=O)N2CCC3(CC2)NC(=O)N(c2ccccc2Cl)N3)cc1 | inconclusive [inhibitor, single point]
14 | CCC(=O)N1Cc2ccccc2CC2(CCCN2Cc2ccc(OC)cc2)C1 (configuration not stated) | inactive
15 | Cc1ccoc1-c1nc2ccncc2[nH]1 | inconclusive [inhibitor, partial curve, poor fit]
16 | COc1cccc(N2CCN(C(=O)CCC[C@H]3NC[C@@H]4C[C@H]3CN(Cc3ccccc3)C4)CC2)c1 | inconclusive [inhibitor, single point]
17 | O=C(NC1CC1)[C@@H]1C[C@H](Oc2ccccc2)CN1C(=O)CCC1CCCC1 | inactive
18 | NC(=O)c1cccnc1N1CCOC(CC(c2ccccc2)c2ccccc2)C1 (configuration not stated) | inconclusive [inhibitor, single point]
19 | Cc1cccc(C(=O)NCCc2ncc(C)n2C2CC2)c1 | inconclusive [inhibitor, single point]
20 | COc1ccc(CNC(=O)c2cc3cn(C4CC4)cc3s2)cc1OC | inconclusive [inhibitor, single point]
21 | CC(=O)Nc1ccc(S(=O)(=O)N[C@@H]2C=C[C@@H](c3c(C)nn(-c4ccc(C(C)(C)C)cc4)c3C)C2)cc1 | inactive
22 | CCC(C(=O)N1CCC2(CC1)C(=O)N(CC(=O)NCC(C)C)CN2c1ccccc1)c1ccccc1 (configuration not stated) | inconclusive [inhibitor, full curve, poor fit]
23 | COCc1cc(C[C@@H]2C[C@H](NCc3ccco3)C2(C)C)no1 | inconclusive [inhibitor, single point]

Row | Compound | Potency
24 | CCN1CCC(c2nc3ccc(C)cc3c(=O)[nH]2)CC1 | inconclusive [inhibitor, single point]
25 | C1CCC(CN2CCCC(c3nc(CCOCC4CCOCC4)no3)C2)CC1 (configuration not stated) | inactive
26 | O=C(c1ccccc1)N1CCN(C(=O)c2nc3cccnc3n(C3CC3)c2=O)CC1 | inconclusive [inhibitor, single point]
27 | CN(CC1CCOC1)C(=O)Nc1cccc(Br)c1 (configuration not stated) | inconclusive [inhibitor, single point]
28 | Cn1cc(CN2CCN3CCCC3C2)c(-c2ccc(C3CCCCC3)cc2)n1 (configuration not stated) | inconclusive [inhibitor, single point]
29 | O=C1Nc2ccccc2CC12CCCN2CC1CCOCC1 (configuration not stated) | inconclusive [inhibitor, partial curve, poor fit]
30 | O=C(NC1CCCC1)N1CCC(OCc2ccccc2)C1 (configuration not stated) | inactive
31 | COc1ccc(CN2C(=O)[C@@H]3C[C@@H](CN3C(C)C)Oc3ccccc32)cc1 | inactive
32 | Cn1cc(CC(=O)N2CCCc3ncc(C(=O)NCc4cccc(F)c4)cc32)c2ccccc21 | inconclusive [inhibitor, full curve]
33 | COc1ccc(Nc2cccc(CN3CCCC(C)(NC(C)=O)C3)c2)cc1 (configuration not stated) | inconclusive [inhibitor, full curve, poor fit]
34 | Cc1c(F)cccc1NC(=O)Nc1cccc(-c2ccc(N3CCOCC3)nn2)c1 | inactive
35 | O=C(C[C@@H]1CCNC[C@@H]1Cc1cc(-c2ccccn2)on1)NCc1ccccc1 | inconclusive [inhibitor, single point]
36 | COc1ccc(C(N)CC(=O)N2CCC3(CC2)CN(C)C(=O)O3)cc1OC (configuration not stated) | inconclusive [inhibitor, single point]
37 | Cn1ncc(N2CCC(CNC(=O)c3ccn(C(C)(C)C)c3)C2)cc1=O (configuration not stated) | inconclusive [inhibitor, full curve, poor fit]
38 | N#Cc1cccc(C(=O)N2CC(c3nc(CCOCC4CCCC4)no3)C2)c1 | inconclusive [inhibitor, partial curve, poor fit]
39 | O=C(O)Cn1ccc2cc(OCc3cccc(-c4ccc(F)c(Cl)c4)c3)cnc21 | inactive
40 | CN1Cc2ccc(Nc3ccccc3)nc2C(C)(C(=O)NCc2ccc3c(c2)OCO3)C1 (configuration not stated) | inconclusive [inhibitor, full curve, poor fit]
41 | CC(C)Oc1ccc(CNC(=O)CCC2CCN(C(=O)c3ccccc3)CC2)cc1 | inconclusive [inhibitor, partial curve, poor fit]
42 | COc1cccc([S+](=O)([O-])N2CCn3ncc(C(=O)Nc4ccc(Cl)cc4Cl)c3C2)c1 | inconclusive [inhibitor, single point]
43 | c1coc(-c2nnc([C@H]3CCN(Cc4cccs4)C3)o2)c1 | inactive
44 | COc1ccc([C@H]2C[C@@H](O)[C@@H](O)[C@@H]2NC(=O)c2nc3ccccc3s2)cc1 | inactive
45 | Cc1occc1C(=O)N1C[C@@H](C(=O)O)C[C@H](C(=O)NCc2ccccn2)C1 | inconclusive [inhibitor, full curve, poor fit]
46 | COCc1nc(N2CC3C[C@@H]4CC2C[C@H](C3)C4)c2cnn(C)c2n1 | inactive

Row | Compound | Potency
47 | CCc1ccccc1OCC(=O)c1ccc2c(c1)N(CCCC(=O)NCC1CCCO1)C(=O)CO2 (configuration not stated) | inconclusive [inhibitor, single point]
48 | O=S(=O)(NC[C@H]1Cn2c(-c3ccc(F)cc3)cnc2CO1)c1ccc(Cl)cc1 | inactive
49 | COc1ccc2nc(CNC(=O)C3CCN(C(=O)C4CCC4)CC3)[nH]c2c1 | inconclusive [inhibitor, single point]
50 | CCCCOc1ccc(C(=O)N2CCC[C@H]2c2nc(-c3ccc(C)cc3)no2)cc1 | inconclusive [inhibitor, single point]
51 | CCCCNc1nc2c(s1)C[C@]1(C)CC[C@@H]3[C@H](OC(=O)[C@H]3C)[C@H]1[C@@H]2C | inconclusive [inhibitor, single point]
52 | O=C(NC1CCCC1)[C@@H]1CCCN1c1nccc(Nc2ccccc2Cl)n1 | inactive
53 | COC1CCN(C(=O)C2(C)CN(Cc3ccccc3)Cc3ccc(Nc4ccccc4)nc32)CC1 (configuration not stated) | inactive
54 | O=C(O)CC1(O)C(=O)Nc2ccccc21 (configuration not stated) | inactive
55 | Cc1ccc(C(=O)N2CCN(C(=O)c3nc4cccnc4n(Cc4ccccc4)c3=O)CC2)cc1 | inactive
56 | CCn1cc(S(=O)(=O)N2CCC(Cc3nncn3-c3ccccc3)CC2)cn1 | inactive
57 | O=C(NC1CCCN(c2cc(-c3ccc(F)cc3)[nH]n2)C1)c1ccccc1 (configuration not stated) | inactive
58 | CN(C)C[C@@H]1CN(C)C[C@H]1NC(=O)c1ccc(Br)cc1 | inconclusive [inhibitor, single point]
59 | O=C(c1ccc(C(F)(F)F)cc1)N1CCC(C(=O)N2CCC(N3CCCC3=O)CC2)CC1 | inconclusive [inhibitor, partial curve, poor fit]
60 | CC(C)C(=O)N1CC(c2nnc(-c3ccncc3)o2)C2(CCOCC2)C1 (configuration not stated) | inconclusive [inhibitor, single point]
61 | COc1ccccc1OCCNC(=O)c1ccc(Cn2ccn3nc4c(c3c2=O)CCCC4)cc1 | inactive
62 | CCC(O)c1cc2n(n1)CCN(C(=O)c1cn(-c3ccccc3)nn1)C2 (configuration not stated) | inactive
63 | COc1cccc(CNC(=O)C2CCN(c3nccc(Nc4ccccc4F)n3)CC2)c1 | inactive
64 | CON(C)C(=O)N1N=C(c2cc(F)ccc2F)S[C@@]1(CCCN)c1ccccc1 | inconclusive [inhibitor, partial curve, poor fit]
65 | O=C(NC1CCCCC1)N1CCC(N2C(=O)C3(CCCCC3)C2c2ccncc2)CC1 (configuration not stated) | inactive
66 | Cc1nc(C2CC(O)C2)cc(N2CCC(OCc3cccnc3)CC2)n1 (configuration not stated) | inconclusive [inhibitor, single point]
67 | COCC(=O)N1CCC(Oc2ccccc2C(=O)N2C[C@H]3CC[C@H]2C3)CC1 | inconclusive [inhibitor, single point]
